This is one part of the list.
Columns and labels:
Assay in all cases: glycan array binding signal (z-score within array); higher = stronger binding
Details in all cases: glycan notation: IUPAC condensed, linker removed
Fuc(a1-2)Gal = molecular target: Fuc(a1-2)Gal
Outline: (§1)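 Columns mapping to the same glycan were averaged after glycan names were converted to IUPAC-condensed notation. The data come from 3228 arrays in the Consortium for Functional Glycomics database, limited to those with an available protein sequence. Binding is reported as a within-array Z-score averaged across arrays of one protein sequence and across linkers.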

Fuc(a1-2)Gal(b1-3)GalNAc = molecular target: Fuc(a1-2)Gal(b1-3)GalNAc
Outline: as §1

[1] = molecular target: Fuc(a1-2)Gal(b1-3)GalNAc(a1-3)[Fuc(a1-2)]Gal(b1-4)Glc
Outline: as §1

[2] = molecular target: Fuc(a1-2)Gal(b1-3)GalNAc(a1-3)[Fuc(a1-2)]Gal(b1-4)GlcNAc
Outline: as §1

[3] = molecular target: Fuc(a1-2)Gal(b1-3)GalNAc(b1-3)Gal
Outline: as §1

[4] = molecular target: Fuc(a1-2)Gal(b1-3)GalNAc(b1-3)Gal(a1-4)Gal(b1-4)Glc
Outline: as §1

[5] = molecular target: Fuc(a1-2)Gal(b1-3)GalNAc(b1-4)[Neu5Ac(a2-3)]Gal(b1-4)Glc
Outline: as §1

Fuc(a1-2)Gal(b1-3)GlcNAc = molecular target: Fuc(a1-2)Gal(b1-3)GlcNAc
Outline: as §1

[6] = molecular target: Fuc(a1-2)Gal(b1-3)GlcNAc(b1-2)Man(a1-3)[Fuc(a1-2)Gal(b1-3)GlcNAc(b1-2)Man(a1-6)]Man(b1-4)GlcNAc(b1-4)GlcNAc
Outline: as §1

[7] = molecular target: Fuc(a1-2)Gal(b1-3)GlcNAc(b1-2)Man(a1-3)[Fuc(a1-2)Gal(b1-3)GlcNAc(b1-2)Man(a1-6)]Man(b1-4)GlcNAc(b1-4)[Fuc(a1-6)]GlcNAc
Outline: as §1

[8] = molecular target: Fuc(a1-2)Gal(b1-3)GlcNAc(b1-3)Gal(b1-4)Glc
Outline: as §1

[9] = molecular target: Fuc(a1-2)Gal(b1-3)GlcNAc(b1-3)GalNAc
Outline: as §1

[10] = molecular target: Fuc(a1-2)Gal(b1-3)GlcNAc(b1-3)[Fuc(a1-2)Gal(b1-3)GlcNAc(b1-6)]GalNAc
Outline: as §1

[11] = molecular target: Fuc(a1-2)Gal(b1-3)GlcNAc(b1-3)[Gal(b1-4)GlcNAc(b1-6)]Gal(b1-4)Glc
Outline: as §1

[12] = molecular target: Fuc(a1-2)Gal(b1-3)GlcNAc(b1-3)[Neu5Ac(a2-6)Gal(b1-4)GlcNAc(b1-6)]Gal(b1-4)Glc
Outline: as §1

[13] = molecular target: Fuc(a1-2)Gal(b1-3)GlcNAc6S
Outline: as §1

[14] = molecular target: Fuc(a1-2)Gal(b1-3)[Fuc(a1-4)]GlcNAc
Outline: as §1

[15] = molecular target: Fuc(a1-2)Gal(b1-3)[Fuc(a1-4)]GlcNAc(b1-2)Man(a1-3)[Fuc(a1-2)Gal(b1-3)[Fuc(a1-4)]GlcNAc(b1-2)Man(a1-3)]Man(b1-4)GlcNAc(b1-4)GlcNAc
Outline: as §1

[16] = molecular target: Fuc(a1-2)Gal(b1-3)[Fuc(a1-4)]GlcNAc(b1-2)Man(a1-3)[Fuc(a1-2)Gal(b1-3)[Fuc(a1-4)]GlcNAc(b1-2)Man(a1-6)]Man(b1-4)GlcNAc(b1-4)[Fuc(a1-6)]GlcNAc(b1-4)[Fuc(a1-6)]GlcNAc
Outline: as §1

[17] = molecular target: Fuc(a1-2)Gal(b1-3)[Fuc(a1-4)]GlcNAc(b1-3)[Fuc(a1-3)[Gal(b1-4)]GlcNAc(b1-6)]Gal(b1-4)Glc
Outline: as §1

[18] = molecular target: Fuc(a1-2)Gal(b1-3)[Fuc(a1-4)]GlcNAc(b1-3)[Gal(b1-4)GlcNAc(b1-6)]Gal(b1-4)Glc
Outline: as §1

[19] = molecular target: Fuc(a1-2)Gal(b1-4)Fuc(a1-3)]GlcNAc(b1-2)Man(a1-3)[Fuc(a1-2)Gal(b1-4)[Fuc(a1-3)]GlcNAc(b1-2)Man(a1-6)]Man(b1-4)GlcNAc(b1-4)GlcNAc
Outline: as §1

Fuc(a1-2)Gal(b1-4)Glc = molecular target: Fuc(a1-2)Gal(b1-4)Glc
Outline: as §1

Fuc(a1-2)Gal(b1-4)Glc6S = molecular target: Fuc(a1-2)Gal(b1-4)Glc6S
Outline: as §1

Fuc(a1-2)Gal(b1-4)GlcNAc = molecular target: Fuc(a1-2)Gal(b1-4)GlcNAc
Outline: as §1

[20] = molecular target: Fuc(a1-2)Gal(b1-4)GlcNAc(b1-2)Man
Outline: as §1

[21] = molecular target: Fuc(a1-2)Gal(b1-4)GlcNAc(b1-2)Man(a1-3)[Fuc(a1-2)Gal(b1-4)GlcNAc(b1-2)Man(a1-6)]Man(b1-4)GlcNAc(b1-4)GlcNAc
Outline: as §1

[22] = molecular target: Fuc(a1-2)Gal(b1-4)GlcNAc(b1-2)Man(a1-3)[Fuc(a1-2)Gal(b1-4)GlcNAc(b1-2)Man(a1-6)]Man(b1-4)GlcNAc(b1-4)[Fuc(a1-6)]GlcNAc
Outline: as §1

[23] = molecular target: Fuc(a1-2)Gal(b1-4)GlcNAc(b1-2)[Fuc(a1-2)Gal(b1-4)GlcNAc(b1-4)]Man(a1-3)[Fuc(a1-2)Gal(b1-4)GlcNAc(b1-2)Man(a1-6)]Man(b1-4)GlcNAc(b1-4)GlcNAc
Outline: as §1

[24] = molecular target: Fuc(a1-2)Gal(b1-4)GlcNAc(b1-3)Gal(b1-4)GlcNAc
Outline: as §1

[25] = molecular target: Fuc(a1-2)Gal(b1-4)GlcNAc(b1-3)Gal(b1-4)GlcNAc(b1-2)Man(a1-3)[Fuc(a1-2)Gal(b1-4)GlcNAc(b1-3)Gal(b1-4)GlcNAc(b1-2)Man(a1-6)]Man(b1-4)GlcNAc(b1-4)GlcNAc
Outline: as §1

[26] = molecular target: Fuc(a1-2)Gal(b1-4)GlcNAc(b1-3)Gal(b1-4)GlcNAc(b1-3)Gal(b1-4)GlcNAc
Outline: as §1

[27] = molecular target: Fuc(a1-2)Gal(b1-4)GlcNAc(b1-3)GalNAc
Outline: as §1

[28] = molecular target: Fuc(a1-2)Gal(b1-4)GlcNAc(b1-3)[Fuc(a1-2)Gal(b1-4)GlcNAc(b1-6)]GalNAc
Outline: as §1

[29] = molecular target: Fuc(a1-2)Gal(b1-4)GlcNAc(b1-3)[Fuc(a1-3)[Gal(b1-4)]GlcNAc(b1-6)]Gal(b1-4)Glc
Outline: as §1

[30] = molecular target: Fuc(a1-2)Gal(b1-4)GlcNAc(b1-6)GalNAc
Outline: as §1

[31] = molecular target: Fuc(a1-2)Gal(b1-4)GlcNAc6S
Outline: as §1

[32] = molecular target: Fuc(a1-2)Gal(b1-4)[Fuc(a1-3)]GlcNAc
Outline: as §1

[33] = molecular target: Fuc(a1-2)Gal(b1-4)[Fuc(a1-3)]GlcNAc(b1-2)Man(a1-3)[Fuc(a1-2)Gal(b1-4)[Fuc(a1-3)]GlcNAc(b1-2)Man(a1-6)]Man(b1-4)GlcNAc(b1-4)[Fuc(a1-6)]GlcNAc
Outline: as §1

[34] = molecular target: Fuc(a1-2)Gal(b1-4)[Fuc(a1-3)]GlcNAc(b1-2)[Fuc(a1-2)Gal(b1-4)[Fuc(a1-3)]GlcNAc(b1-4)]Man(a1-3)[Fuc(a1-2)Gal(b1-4)[Fuc(a1-3)]GlcNAc(b1-2)Man(a1-6)]Man(b1-4)GlcNAc(b1-4)GlcNAc
Outline: as §1

[35] = molecular target: Fuc(a1-2)Gal(b1-4)[Fuc(a1-3)]GlcNAc(b1-3)Gal(b1-4)[Fuc(a1-3)]GlcNAc
Outline: as §1

[36] = molecular target: Fuc(a1-2)Gal(b1-4)[Fuc(a1-3)]GlcNAc(b1-3)Gal(b1-4)[Fuc(a1-3)]GlcNAc(b1-3)Gal(b1-4)[Fuc(a1-3)]GlcNAc
Outline: as §1

[37] = molecular target: Fuc(a1-2)Gal(b1-4)[Fuc(a1-3)]GlcNAc(b1-3)GalNAc
Outline: as §1

[38] = molecular target: Fuc(a1-2)Gal(b1-4)[Fuc(a1-3)]GlcNAc(b1-3)[Neu5Ac(a2-6)Gal(b1-4)GlcNAc(b1-6)]Gal(b1-4)Glc
Outline: as §1

[39] = molecular target: Fuc(a1-2)Gal3S(b1-4)GlcNAc
Outline: as §1

B1: DBA (Dolichos biflorus) (protein)
chain: ANIQSFSFKNFNSPSFILQGDATVSSGKLQLTKVKENGFPLRFPSGRAFYSSPIQIYDKFTGAVASWATSFTVKISAPSKASFADGIAFALVPVGSEPRRNGGYLGVFDSDVYNNSAQTVAVEFDTLSNSGWDPSMKHIGIDVNSIKSIATVSWDLANGENAEILITYNAATSLLVVSLVHPSRRTSYILSERVDITNELPEYVGVGFSATTGLSEGYIETHDVLSWSFASRLPDDSTAEPLDLARYLVRNVL
- glycan array binding signal (z-score) (Fuc(a1-2)Gal): -0.069
- glycan array binding signal (z-score) (Fuc(a1-2)Gal(b1-3)GalNAc): -0.103
- glycan array binding signal (z-score) [1]: -0.133
- glycan array binding signal (z-score) [2]: -0.119
- glycan array binding signal (z-score) [3]: -0.1
- glycan array binding signal (z-score) [4]: -0.099
- glycan array binding signal (z-score) [5]: -0.141
- glycan array binding signal (z-score) (Fuc(a1-2)Gal(b1-3)GlcNAc): -0.121
- glycan array binding signal (z-score) [6]: -0.054
- glycan array binding signal (z-score) [7]: -0.081
- glycan array binding signal (z-score) [8]: -0.131
- glycan array binding signal (z-score) [9]: -0.133
- glycan array binding signal (z-score) [10]: -0.041
- glycan array binding signal (z-score) [11]: -0.099
- glycan array binding signal (z-score) [12]: -0.152
- glycan array binding signal (z-score) [13]: -0.084
- glycan array binding signal (z-score) [14]: -0.142
- glycan array binding signal (z-score) [15]: -0.043
- glycan array binding signal (z-score) [16]: -0.09
- glycan array binding signal (z-score) [17]: -0.136
- glycan array binding signal (z-score) [18]: -0.087
- glycan array binding signal (z-score) [19]: -0.094
- glycan array binding signal (z-score) (Fuc(a1-2)Gal(b1-4)Glc): -0.076
- glycan array binding signal (z-score) (Fuc(a1-2)Gal(b1-4)Glc6S): -0.09
- glycan array binding signal (z-score) (Fuc(a1-2)Gal(b1-4)GlcNAc): -0.05
- glycan array binding signal (z-score) [20]: -0.099
- glycan array binding signal (z-score) [21]: -0.048
- glycan array binding signal (z-score) [22]: 0.259
- glycan array binding signal (z-score) [23]: 0.014
- glycan array binding signal (z-score) [24]: -0.069
- glycan array binding signal (z-score) [25]: 0.098
- glycan array binding signal (z-score) [26]: 0.028
- glycan array binding signal (z-score) [27]: -0.104
- glycan array binding signal (z-score) [28]: -0.071
- glycan array binding signal (z-score) [29]: -0.102
- glycan array binding signal (z-score) [30]: -0.018
- glycan array binding signal (z-score) [31]: 0.012
- glycan array binding signal (z-score) [32]: 0.083
- glycan array binding signal (z-score) [33]: 0.119
- glycan array binding signal (z-score) [34]: -0.044
- glycan array binding signal (z-score) [35]: -0.09
- glycan array binding signal (z-score) [36]: 0.167
- glycan array binding signal (z-score) [37]: 0.449
- glycan array binding signal (z-score) [38]: -0.066
- glycan array binding signal (z-score) [39]: -0.041

From the supplement of paper PMC8728848
